Data reported in patent US11590092B2, “Skin probiotic” (The Regents of the University of California, priority 2014, dated 2023).
The source holds more than one record for some entries. This list holds those alone. The source may hold further records. Values that stand side by side read as repeated measurements on other runs, samples or individuals. A tag in brackets gives the origin of a value. Letters hold for one entry only.

Test system: USA300
Test: In vivo skin wound infection with USA300
Design: species or system ICR mice
Details: topical 100 mM propionic acid
Description: ICR mice (2-3-month-old female) were anesthetized by isoflurane. In each experiment, there were five mice per group. A wound 5 mm in length was made on the dorsal skin after shaving with electrical clippers. Once the skin wound was created, 5 μl of propionic acid (100 mM), PBS (pH 7.1) or PBS (pH 3.5) was applied topically to the wounded areas. The wounds were left uncovered throughout the experimental period. For bacterial infection, USA300 (2×10^6 CFU in PBS) was applied topically to the wounded areas 10 min after application of propionic acid or PBS. For the measurement of the extent of wound closure, a transparent parafilm was put on the top of the wounded skin. The wound area was marked on the parafilm by drawing an area which covered the whole skin wound. The lesion size was measured daily for 8 days was calculated using the ImageJ software [National Institutes of Health (NIH), Bethesda, Md., USA] and expressed as mm^2. Student's t-test was used to determine the significance of the differences between groups of the PBS (pH 7.1)- and propionic acid-treated mice as well as the PBS (pH 7.1)- and PBS (pH 3.5)-treated mice. […]
ICR mice (2-3 month-old females; Harlan Labs, Placentia, Calif., USA) were anesthetized by isoflurane. […] The lesion size (mm^2) was measured daily for 8 days then calculated with ImageJ software (NIH, Bethesda, Md., USA). […]

For `CCC(=O)O` [propionic acid], the “size of USA300-infected skin lesions on Day 1” value was 3.2±0.8 mM [passage A] and 3.2±0.8 mm^2 [passage B].
